One assay deals with HSkMC. Briefly: cytotoxicity call (relative viability < 0.9). As to conditions: 10 µM.
In another assay the test system is HepG2. Put plainly: cytotoxicity call (relative viability < 0.9). As to conditions: 10 µM.
Another assay deals with S. aureus RN4220. Briefly: growth inhibition call (relative growth <= 0.2). As to conditions: 50 µM.

This is one part of the list.

As for `C[C@@H]1CN([C@H](C)CO)C(=O)CCCn2nncc2CO[C@H]1CN(C)S(=O)(=O)c1ccc2c(c1)OCCCO2`, the cytotoxicity call in the assay on HSkMC and with HepG2 was “inactive” each time. Also, in the assay on S. aureus RN4220, the growth inhibition call is “inactive”.

For `NC(=O)c1cccnc1N1CCN(C(=O)[C@@H]2CC(=O)N(C3CC3)C2)CC1`, the cytotoxicity call with HSkMC and with HepG2 was “inactive” each time. Also, the growth inhibition call with S. aureus RN4220 was “inactive”.

Take `Cc1cc(N)n2nc(C)cc2n1`: the cytotoxicity call in the assay with HSkMC and with HepG2 was “inactive” each time. In addition, the growth inhibition call in the assay on S. aureus RN4220 is “inactive”.

For the molecule `CCNc1nc(NCC)nc(OCC#N)n1`, the cytotoxicity call in the assay on HSkMC and in the assay on HepG2 was “inactive” throughout. Moreover, in the assay with S. aureus RN4220, the growth inhibition call was “inactive”.

Regarding `C[C@H]1CCCCO[C@@H](CN(C)Cc2ccc3c(c2)OCO3)[C@@H](C)CN([C@@H](C)CO)C(=O)c2cc(NC(=O)Nc3ccccc3)ccc2O1`, in the assay with HSkMC, the cytotoxicity call was “inactive”. In addition, the cytotoxicity call in the assay with HepG2 is “active”. In addition, the growth inhibition call in the assay with S. aureus RN4220 was “inactive”.

Turning to `C[C@@H]1CCCCO[C@@H](CN(C)Cc2ccc3c(c2)OCO3)[C@H](C)CN([C@@H](C)CO)C(=O)c2cc(NC(=O)Nc3ccccc3)ccc2O1`, the cytotoxicity call in the assay with HSkMC and in the assay on HepG2 was “inactive” each time. Also, the growth inhibition call in the assay with S. aureus RN4220 was “inactive”.

Consider `C[C@H]1CN([C@@H](C)CO)C(=O)c2cccc(NC(=O)Nc3cccc4ccccc34)c2O[C@H]1CN(C)Cc1ccccc1`, for which the cytotoxicity call in the assay with HSkMC and in the assay on HepG2 was “inactive” each time. Also, in the assay on S. aureus RN4220, the growth inhibition call was “inactive”.

Regarding `CC[C@@H]1COCCC(=O)N1`, the cytotoxicity call in the assay on HSkMC and with HepG2 was “inactive” throughout. For the same molecule, in the assay on S. aureus RN4220, the growth inhibition call is “inactive”.

As to `C[C@@H]1CN([C@@H](C)CO)S(=O)(=O)c2ccc(-c3ccc(F)cc3)cc2O[C@@H]1CN(C)C(=O)C1CCOCC1`, the cytotoxicity call in the assay on HSkMC and in the assay with HepG2 was “inactive” each time. For the same molecule, in the assay with S. aureus RN4220, the growth inhibition call is “inactive”.

For `CCOC(=O)c1nnn(CC(N)=O)c1C`, the cytotoxicity call in the assay with HSkMC and in the assay on HepG2 was “inactive” each time. The growth inhibition call in the assay with S. aureus RN4220 is “inactive”.

Consider `C[C@H]1CN([C@@H](C)CO)C(=O)c2cc(C#CC3CCCCC3)cnc2O[C@@H]1CN(C)C(=O)c1ccncc1`, for which the cytotoxicity call in the assay on HSkMC and in the assay on HepG2 was “inactive” in each case. The growth inhibition call in the assay with S. aureus RN4220 was “inactive”.

`CO[C@@H]1CN(C)C(=O)c2cc(NC(=O)C3CC3)ccc2OC[C@@H](C)N(C(=O)Nc2ccc(C(F)(F)F)cc2)C[C@H]1C`: the cytotoxicity call in the assay with HSkMC and with HepG2 was “inactive” in each case. For the same molecule, in the assay with S. aureus RN4220, the growth inhibition call was “inactive”.

On to `COCC#Cc1ccc([C@@H]2[C@@H](CO)N3C(=O)CN(C(=O)CN4CCOCC4)C[C@@H]23)cc1`, for which the cytotoxicity call in the assay on HSkMC and in the assay with HepG2 was “inactive” each time. Besides, in the assay with S. aureus RN4220, the growth inhibition call was “inactive”.

As for `C[C@H](CO)N1C[C@H](C)[C@@H](CN(C)C(=O)CCC(F)(F)F)OCCCC[C@H](C)Oc2ccc(NC(=O)Nc3ccccc3)cc2C1=O`, the cytotoxicity call in the assay with HSkMC and in the assay with HepG2 was “inactive” each time. Moreover, the growth inhibition call with S. aureus RN4220 was “inactive”.

As for `COCC(=O)Nc1ccc2c(c1)C(=O)N(C)C[C@H](OC)[C@@H](C)CN(Cc1cccc(F)c1)[C@@H](C)CO2`, the cytotoxicity call in the assay on HSkMC and in the assay on HepG2 was “inactive” throughout. Also, the growth inhibition call in the assay with S. aureus RN4220 was “inactive”.

As for `O=S1(=O)NCNc2ccccc21`, the cytotoxicity call in the assay with HSkMC and in the assay on HepG2 was “inactive” in each case. Moreover, in the assay on S. aureus RN4220, the growth inhibition call is “inactive”.

For the molecule `C[C@@H]1CN([C@@H](C)CO)C(=O)c2cc(NS(=O)(=O)c3ccc(Cl)cc3)ccc2O[C@@H](C)CCCCO[C@H]1CN(C)C(=O)c1ccccc1`, the cytotoxicity call in the assay with HSkMC and in the assay with HepG2 was “inactive” in each case. Besides, in the assay with S. aureus RN4220, the growth inhibition call was “inactive”.

Regarding `CCC(=O)N[C@@H]1C=C[C@@H](CC(=O)OC)O[C@H]1CO`, the cytotoxicity call in the assay on HSkMC and in the assay on HepG2 was “inactive” in each case. In addition, in the assay with S. aureus RN4220, the growth inhibition call is “inactive”.

As to `Cc1noc(C)c1NC(=O)Nc1ccc2c(c1)C(=O)N([C@@H](C)CO)C[C@@H](C)[C@@H](CN(C)S(=O)(=O)c1ccccc1)O2`, the cytotoxicity call in the assay with HSkMC and in the assay on HepG2 was “inactive” in each case. For the same molecule, in the assay with S. aureus RN4220, the growth inhibition call was “inactive”.

Take `COc1ccc(-c2cnc3c(c2)C(=O)N([C@H](C)CO)C[C@@H](C)[C@@H](CN(C)C(=O)Cc2cccnc2)O3)cc1`: the cytotoxicity call with HSkMC and in the assay on HepG2 was “inactive” throughout. Further, the growth inhibition call in the assay on S. aureus RN4220 is “inactive”.

On to `COCCOC(=O)N1C(=O)[C@@]2(c3cc(C#CCCO)ccc31)[C@H](c1ccccc1OCCO)N1[C@H](c3ccccc3)[C@H](c3ccccc3)OC(=O)[C@H]1[C@@H]2C(=O)Nc1nc2ccccc2s1`, for which the cytotoxicity call with HSkMC and in the assay with HepG2 was “inactive” throughout. Also, in the assay on S. aureus RN4220, the growth inhibition call is “inactive”.

In the case of `Cc1cc(C(=O)Nc2cccc3c2O[C@@H](CN(C)S(=O)(=O)c2cn(C)cn2)[C@H](C)CN([C@H](C)CO)C3=O)n(C)n1`, the cytotoxicity call with HSkMC and with HepG2 was “inactive” in each case. Further, the growth inhibition call in the assay with S. aureus RN4220 is “inactive”.

As to `C[C@@H]1CN([C@@H](C)CO)S(=O)(=O)c2ccc(C#Cc3cccnc3)cc2O[C@@H]1CN(C)CC1CCOCC1`, the cytotoxicity call in the assay with HSkMC and with HepG2 was “inactive” each time. Besides, in the assay with S. aureus RN4220, the growth inhibition call was “inactive”.

Take `CCC1=NCCO1`: the cytotoxicity call with HSkMC and in the assay on HepG2 was “inactive” each time. Moreover, the growth inhibition call with S. aureus RN4220 was “inactive”.

For `O=C(O)c1ccc(S(=O)(=O)N(Cl)Cl)cc1`, the cytotoxicity call in the assay with HSkMC and with HepG2 was “inactive” each time. Further, the growth inhibition call in the assay on S. aureus RN4220 was “inactive”.

Consider `COCCNC(=O)C[C@H]1CC[C@H]2[C@@H](COc3ccc(NS(=O)(=O)c4ccc(Cl)cc4)cc3C(=O)N2C)O1`, for which the cytotoxicity call in the assay on HSkMC and in the assay on HepG2 was “inactive” each time. Further, the growth inhibition call with S. aureus RN4220 was “inactive”.

Regarding `O=C(c1cccnc1)N1C[C@@H]2[C@H](c3ccccc31)[C@H](CO)N2C(=O)CN1CCOCC1`, the cytotoxicity call in the assay on HSkMC and with HepG2 was “inactive” in each case. Further, the growth inhibition call with S. aureus RN4220 was “inactive”.

Consider `O=C(Nc1ccc(C(F)(F)F)cc1)Nc1ccc2c(c1)[C@@H]1C[C@@H](CC(=O)N3CCc4ccccc4C3)O[C@@H](CO)[C@@H]1O2`, for which the cytotoxicity call in the assay on HSkMC (human skeletal muscle cells) and with HepG2 was “inactive” each time. For the same molecule, in the assay with S. aureus RN4220, the growth inhibition call was “inactive”.

(Values after the antibiotic and cytotoxicity screens of Wong et al. (2023).)
